Assay results taken from the supplement of paper PMC12632987.
Whole data set: some 2,300 sequences, median “median log2 fold change of GCK-ALFA target abundance (FLAG IP / Myc IP barcode read proportion)” near 0.095, cut for the lowest 2% near -0.47. This is one part of the list.

B1: LC3A_3_1888 (protein)
chain: MEEKVEEALKKLKEAGASEETLEAFKEAFELLKERGWEEALKTLIEEVEELLDAPNEVLLDFLKEVIELLKQPGVSEEELIKGIKELARLAKNEAEIEEL
B2: LC3A_102_151 (protein)
chain: TPEQRVREAARRALEELLEAIEANESLTPEQKEEARRLAREAIEAALESALSYLRHGFADIEAEDRRIEAIERLAEIDPELAELLRRKIEELERLVEELK
B3: LC3A_28_1078 (protein)
chain: SPIAEQVAAALAEAKAAAARGEEAVLTITVTEDATQEDIDTVIAGLEELAELAKTGGKVTVIIDLDGDIPQEHIDKLADAAEEVEKRNPNLTVIIALPDE
B4: LC3A_28_1179 (protein)
chain: SELEKSIEEALAKAKEAKEKGEPTVITIKVPGDVTQEETEKVIKAMEEIAELLKDIKGSAIVIEVDSGVSQEHLDKLMKKGEEIEKKYPNVTVIFALDEE
B5: LC3A_28_1044 (protein)
chain: NELKEDAEKAIEEAKEQFEKGEEAVVTINVPKIDTETAKKIVTETLEKLIELSKKYGNKKVTVVINFDGDQETLDAIIDVAEEAEKKDPNLTVIIAYDPE
B6: LC3A_128_230 (protein)
chain: NETLKEIKELLEEALKILKEAKSPELPEELWEKALKAIEEAIKLVKENAPVEEIKKALDEAAKYTEELYLYAKSKGLPEATDIAEALILINQALLLVDEL
B7: LC3A_free_8_2471 (protein)
chain: MSQKVVDTAVKGLDELEEKVEKKAKELGKSELDILELKLEIGSTIADVISLSDESPEKILKTYEEGMKDIIKLAKEISEELAKLVEEMSKEGIKKLEELL
B8: LC3A_3_1751 (protein)
chain: MEERLAEARALLEELGFSEETTEAALEVVRLLLERGFERAVEVLLELLKEMKDLPDEILLAMLEDIRRVVETEDLDEEEVIEEIKREARTAKNEAEIIEL
B9: LC3A_free_8_2487 (protein)
chain: SREETRNKITEIVDETIEKVRELAEKLGADRLDILDLELLLGEVIAAAHELEFESIEEVKKEIEESLEEAEELAREISEEVAEVVREAREKILKLLEEAE
B10: LC3A_3_1622 (protein)
chain: MEEKVEEALKLLKEAGASEETLEAFRETAELLMEKGYYEALETLIEEMEKIKDAPNEIILDALKEVKEVVENEDLDEEELIEKIKEIFRTAKNESEIIEL
B11: LC3A_28_1090 (protein)
chain: SELEESLEAALAETRAAAAAGEEAVVTITVTDEATEEDIELLKETLEEIARIGASLPRLTVIIDLEGKNQQKKADIISKFADELEKKYPNLTIIIALEEE
B12: LC3A_free_46_2354 (protein)
chain: VEAKIEVDLLHEDEEVLKKAVEAIKEAAKKIAKKYGLKVEIKEKIEKLPDGSYFAEIEITLKGEDKETLEKAVNELINEIDEIAKKYDVAAIISYEIIEK
B13: LC3A_3_1538 (protein)
chain: LDAAVAAAEAALRAAGASDETLAAFRAAAEALRARGWEAALKTLIEETAELLDAPSELLLDFFEEVLELVETSDLSEEELIARIKELARTTRNEAEIEEL
B14: LC3A_free_8_2462 (protein)
chain: SSQKLVDEAVKLLDELEEKLVEKAKELGLSHLDILDLELEIGSAIADLIGLENESPETILEEAKEDLEEIIEKAKELGEELYKLAKEESEKILKELEKLK
B15: LC3A_45_1947 (protein)
chain: MAEATVLVLVPEEKFDEALAVLREAAEEISARRGLEVEIDEAAVEAAREEAKREGEALLEVTVYSDDKQDALDAAVEIADRLEERLGPSVAVAIAVKEIP
B16: LC3A_28_1035 (protein)
chain: DALRKEAEAAVKEAEALAAKGEEAVVTLKVGKMPTEEAKAVVEEMLERLIEISKKYGNVKISVVIDVDGDQETIDALTDVAEKAEEKNPNLTVIIAIDED
B17: LC3A_free_46_2425 (protein)
chain: VEVEIDIDLLHKDRATLEAAVAEIVAAIREIAARHGAEVEIEVELSEDEDGDYFAEIRATIIAPDRETAERIADEITDAIDEIATKHGVSYIISVEIIEL
B18: LC3A_free_46_2304 (protein)
chain: YKANINIDFGGLDEEGMKKLVDELVKKFKEIAKKYNAKIEIKVEITTDEEGETFANIDITIKAENEETLQKTVTEIIDTVDELTKETGAAALISVEFEKE
B19: LC3A_28_852 (protein)
chain: SKVEEQIEKARKELEEAAKRGEPVVLELTVSGDFTQEEIDKFIEGLRELAELADKHGGHAIIINVEEGVKQEHIDKIADAAEEIEEKYPNVTVIIALPEN
B20: LC3A_3_1889 (protein)
chain: LEEKVKETLKKLKEAGASEETLAAFEEAAKLLKARGWEEALKTLIEEVEKLLDAPNEVILDFLEDVLALLKRPGVTEEELIKEIKELARLAKNEAEIIEL
B21: LC3A_free_8_2454 (protein)
chain: ASQALADTAIAILDEVEEELKKLLEEAGANRLDILEVELEVGSVIAEVVSLSDSSPEEIAKTAIEGLERVLALVAELKPEIAEEAKKLIDAAKERIKAAL
B22: LC3A_3_1391 (protein)
chain: FEEIKKEAVEELKKFGRSEEVIKATQELLDELEKKGYLEAAKTFLEELKKMKDLSDEILLWMINEVLNYVKTNDSSEEEVVNFIKEVATTARNEHEIEEL
B23: LC3A_free_39_2201 (protein)
chain: SEEEFEKYKEELLKLAEKEGEEALKEAKELLKEIEGNVNLAKTVLEEVKRAVEEGADVLELLKELLKLVKELKKEGKSEEEIIKEMKAKADVIINLIPID
B24: LC3A_free_39_2200 (protein)
chain: MEEELQKVKEEILELAKKEGEEALKAAKELLKEIEGDLELAKEVLEQVKRAIEEGADVLKLLKELLELVKKLKAEGKSTEEIIEEIRAEADVIINLIPID
B25: LC3A_3_1504 (protein)
chain: MEERLERLREKLKELGFSEEVIELAVEAMRLLLERGYYEAAETLEELLLEMKDLSNEDMLEFMEEVLELLETSDDSEEEITKKIKEIATITKNAAEIEEL
B26: LC3A_28_1152 (protein)
chain: SELVEEAKKEIEEDAEKDKNEKEVYLRVTITSEMTVEEAEEVMEHVEEVVEKLKDKEKIYVVVTFEEPVSQEVLDTVLERAERIEKKFPNVDVIIALPED
B27: LC3A_28_1132 (protein)
chain: SAAVEAAKAQIDADAEADKNEEEVFLTVNVSGTVTVEEAREIMAHVEKVVEELKDKKKISVLVNFEEPVSQEVLDTILEGGDELEEKFPNVSVIVALPEG
B28: LC3A_132_274 (protein)
chain: EKEKAEELKKELKEKVEKLKENIDNLEEVKKLIKEIEELLKKAEKELSPELVAEVADYLADKMDEVEEKYLAAGKEEQALLVSNLAMYADGIAIEAELKL
B29: LC3A_3_1506 (protein)
chain: MEEFLEEVREFLREQGRSEEVIALAERVLRLLLERGYEEAARKFAELLREAKDFSEEILLDFLEDVLEMLETEEGDEEEIIEKIEEIYTIHKNAHEIIEL

Biological target: MAP1LC3A, Q9H492
Assay: median log2 fold change of GCK-ALFA target abundance (FLAG IP / Myc IP barcode read proportion) (log2 ratio); each designed protein is fused to an ALFA-tag nanobody in HEK293 cells to bring the named protein to FLAG-tagged glucokinase (GCK); Myc marks an untargeted standard; higher = target protein stabilised (more abundant)
Conditions: target protein: 3xFLAG-MCP-GCK-ALFA reporter; HEK293 landing pad (RPLP)
In short: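 The readout is target abundance, the per-binder median log2 ratio of FLAG to Myc barcode read proportions. It came from HEK293 landing-pad cells carrying a recombined ALFA-nanobody-fused binder library, induced with 2 μg mL^−1 doxycycline and transfected with a plasmid for a FLAG-tagged target and a Myc-tagged standard. After 48 h, lysates were immunoprecipitated with anti-FLAG and anti-Myc, and circular RNA barcodes were reverse transcribed, amplified and sequenced. Each barcode needed a proportion of at least 10^−7 in both replicates and each binder at least 3 barcodes per replicate, a pseudocount of 10^−6 was added, and the replicates were pooled.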

Question: How did the “median log2 fold change” value turn out when B1 was run?
Answer: The value was 0.306.

Question: Which “median log2 fold change” value does the source give for B2 here?
Answer: The value was 0.208.

Question: B3 was tested. Which “median log2 fold change” value did it give?
Answer: Its value is 0.0592.

Question: Which “median log2 fold change” value does the source give for B4 here?
Answer: The value was 0.0481.

Question: How did the “median log2 fold change” value turn out when B5 was run?
Answer: Its value is 0.0219.

Question: For B6, which “median log2 fold change” value is on record?
Answer: Its value is 0.194.

Question: How did the “median log2 fold change” value turn out when B7 was run?
Answer: Its value is -0.199.

Question: B8 was tested. Which “median log2 fold change” value did it give?
Answer: Its value is 0.234.

Question: B9 was tested. Which “median log2 fold change” value did it give?
Answer: The value was -0.222.

Question: B10 was tested. Which “median log2 fold change” value did it give?
Answer: Its value is 0.227.

Question: With B11 as the binder, how does the “median log2 fold change” value read?
Answer: Its value is 0.101.

Question: For B12, which “median log2 fold change” value is on record?
Answer: The value was -1.38e-07.

Question: With B13 as the binder, how does the “median log2 fold change” value read?
Answer: The value was 0.17.

Question: For B14, which “median log2 fold change” value is on record?
Answer: Its value is -0.173.

Question: B15 was tested. Which “median log2 fold change” value did it give?
Answer: Its value is 0.0364.

Question: Which “median log2 fold change” value does the source give for B16 here?
Answer: Its value is 0.0465.

Question: With B17 as the binder, how does the “median log2 fold change” value read?
Answer: Its value is -0.121.

Question: B18 was tested. Which “median log2 fold change” value did it give?
Answer: Its value is 0.0523.

Question: For B19, which “median log2 fold change” value is on record?
Answer: Its value is 0.193.

Question: For B20, which “median log2 fold change” value is on record?
Answer: Its value is 0.333.

Question: How did the “median log2 fold change” value turn out when B21 was run?
Answer: Its value is -0.109.

Question: With B22 as the binder, how does the “median log2 fold change” value read?
Answer: The value was 0.177.

Question: Which “median log2 fold change” value does the source give for B23 here?
Answer: The value was 0.451.

Question: B24 was tested. Which “median log2 fold change” value did it give?
Answer: The value was 0.196.

Question: Which “median log2 fold change” value does the source give for B25 here?
Answer: The value was 0.13.

Question: How did the “median log2 fold change” value turn out when B26 was run?
Answer: Its value is -0.198.

Question: B27 was tested. Which “median log2 fold change” value did it give?
Answer: The value was -0.13.

Question: With B28 as the binder, how does the “median log2 fold change” value read?
Answer: Its value is -0.0602.

Question: For B29, which “median log2 fold change” value is on record?
Answer: Its value is 0.0983.
